Assay results published in PubChem BioAssay AID624417 (National Center for Advancing Translational Sciences (NCATS), 2012).
Hit rate of the full screen: of about 410,000 compounds, about 6,400 (1.6%) were called active. The shares of active, inactive and inconclusive entries below differ from those in the screen. The call rests on the fitted dose curve; in most records, active means well fitted inhibition curve with a large enough effect; inconclusive means small, poorly fitted or top-dose-only effect; inactive means no such curve, though single readings can be large or run the other way. Potencies of inconclusive entries are left out as doubtful fits.
Further: nearly all actives have a fitted effect of over 55% in size.
Potency means the concentration at half of the fitted maximal effect; tags describe the fitted curve by direction and shape.

These compounds were tested against Glucagon-like peptide 1 receptor (Homo sapiens) (UniProt P43220) (assay: qHTS of GLP-1 Receptor Inverse Agonists (Inhibition Mode)). Settings: HEK293 GLP-1R CRE-luciferase, luminescence, 24 h, GLP-1R form is constitutively active; series mostly up to 38.3 µM.
Chain of UniProt P43220 (P43220 whole entry, looked up): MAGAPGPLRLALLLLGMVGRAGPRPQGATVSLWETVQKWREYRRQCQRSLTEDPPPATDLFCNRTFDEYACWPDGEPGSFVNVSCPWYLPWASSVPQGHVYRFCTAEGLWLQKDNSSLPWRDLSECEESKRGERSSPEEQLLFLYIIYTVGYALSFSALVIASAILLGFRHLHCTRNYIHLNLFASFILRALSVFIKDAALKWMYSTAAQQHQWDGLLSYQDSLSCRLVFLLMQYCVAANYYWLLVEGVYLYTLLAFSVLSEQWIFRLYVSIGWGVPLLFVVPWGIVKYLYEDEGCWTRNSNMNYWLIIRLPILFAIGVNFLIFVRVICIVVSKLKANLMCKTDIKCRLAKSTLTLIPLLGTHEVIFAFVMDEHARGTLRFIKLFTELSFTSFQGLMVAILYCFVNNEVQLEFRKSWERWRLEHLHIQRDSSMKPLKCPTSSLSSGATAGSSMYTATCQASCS
How it was run: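 Assay principle: reduced luminescence from a cAMP-responsive reporter in HEK293 cells co-expressing a constitutively active GLP-1R. Conditions: 24 hr compound incubation, 37 deg C, 5% CO2.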
With COc1ccc(NC(=O)CN(C)C(=O)Cc2coc3cc(C)c(C)cc23)cc1 the Potency was inconclusive [inhibitor, single point]. With Cc1cccc(-n2nc3c(c2NC(=O)c2ccc(Br)o2)CSC3)c1C the Potency was inconclusive [inhibitor, single point]. With O=C(CC(c1ccccc1)c1cc(Cl)ccc1O)N1CCOCC1 (stereo not given) the Potency was inconclusive [inhibitor, single point]. In the case of Cc1cccc(OCCC(=O)NCC(=O)Nc2c(C)cccc2C)c1, the Potency is reported as inconclusive [inhibitor, single point]. With O=C(CC[C@H]1O[C@@H](n2ccc(=O)[nH]c2=O)[C@H](O)[C@@H]1O)N[C@H](Cc1ccccc1)C(=O)NCc1ccco1 the Potency was “inactive”. For Cc1ccc(O)c(CC(C)C)n1, the Potency was “inactive”. For Cc1c(C(=O)NCc2ccccc2C(F)(F)F)sc(=O)n1Cc1ccc(F)cc1, the Potency was inconclusive [inhibitor, single point]. In the case of OC(c1ccc(Cl)c(Cl)c1)c1ncc(-c2cccc(F)c2)[nH]1 (stereo not given), the Potency is reported as inconclusive [inhibitor, partial curve, poor fit]. In the case of CN(C)c1cccc(Nc2ccc(-c3ccc(OC(F)(F)F)cc3)cn2)c1, the Potency is reported as inconclusive [inhibitor, full curve, poor fit]. Fc1cccc(/C=N/NC(=S)Nc2ccccc2Cl)c1 was tested, and the Potency was inconclusive [inhibitor, full curve, poor fit]. For CC(/C=C1\SC(=O)N(CC(=O)Nc2cccc(O)c2)C1=O)=C\c1ccccc1, the Potency was inconclusive [inhibitor, single point]. Cc1ccc(SCC(=O)c2c(C)nc3ccccn23)cc1 was tested, and the Potency was inconclusive [inhibitor, single point]. For COc1ccc(C(=O)OCc2ccccc2F)cc1S(=O)(=O)N1CCCC1, the Potency was inconclusive [inhibitor, single point]. For Cc1cnc(C(=O)OCc2c(C)cc(C(C)(C)C)cc2C)cn1, the Potency was inconclusive [inhibitor, partial curve, poor fit]. With Cc1ccc(-c2csc3ncnc(N4CCN(C(=O)c5ccccc5)CC4)c23)cc1 the Potency was inconclusive [inhibitor, single point]. For CN(C)c1ccc(-c2ccnc3c2CC(C)(C(=O)NCc2cccs2)O3)cc1 (stereo not given), the Potency was inconclusive [inhibitor, full curve]. In the case of OC(c1ccccc1)c1nc2ccccc2n1Cc1c(F)cccc1Cl (stereo not given), the Potency is reported as inconclusive [inhibitor, partial curve, poor fit]. In the case of Cc1ccc(CS(=O)(=O)Cc2ccc(C(=O)NC3CCCCCC3)o2)cc1, the Potency is reported as inconclusive [inhibitor, partial curve, poor fit]. In the case of CCCCCCNC(=O)N1C/C=C\C(c2ccc(OC)cc2)N(Cc2ccc(F)cc2)C(=O)C1 (stereo not given), the Potency is reported as inconclusive [inhibitor, single point]. Cc1ccc(C(=O)Nc2ccc(CC(=O)O)cc2)o1 was tested, and the Potency was inconclusive [inhibitor, single point]. For CCCCCCN(C(=O)CCCN1C(=O)NC(c2ccc([N+](=O)[O-])cc2)C(C(=O)OCc2ccccc2)=C1C)C(C)C(=O)NCCCC (stereo not given), the Potency was inconclusive [inhibitor, partial curve, poor fit]. In the case of C/C(=N/NS(=O)(=O)c1ccc(CC(C)C)cc1)c1ccncc1, the Potency is reported as inconclusive [inhibitor, single point]. COC(=O)c1sccc1NC(=S)N1CCN(c2cccc(C)c2C)CC1 was tested, and the Potency was inconclusive [inhibitor, partial curve]. Cc1ccc(S(=O)(=O)NCC(c2ccco2)N2CCc3ccccc3C2)cc1 (stereo not given) was tested, and the Potency was inconclusive [inhibitor, full curve, poor fit]. In the case of Cc1ccc(S(=O)(=O)Nc2ccccc2N2CCOCC2)cc1, the Potency is reported as inconclusive [inhibitor, partial curve]. For S=C(NCc1ccccc1)NNc1nc2ccccc2[nH]1, the Potency was inconclusive [inhibitor, partial curve, poor fit]. With Cc1ccc2c(CC(=O)Nc3ccc(S(=O)(=O)N4CCCC(C)C4)cc3)coc2c1 (stereo not given) the Potency was active: 10 µM. O=S(=O)(N=C1C=CC(=NS(=O)(=O)c2ccccc2)c2ccccc21)c1ccccc1 was tested, and the Potency was inconclusive [inhibitor, single point]. In the case of COC(=O)c1cc(NC(=O)Cn2ncc3c([nH]c4ccccc43)c2=O)cc(C(=O)OC)c1, the Potency is reported as “inactive”. For Cc1ccc(S(=O)(=O)Nc2nc3ccccc3nc2N2CCN(c3ccccc3F)CC2)cc1, the Potency was inconclusive [inhibitor, partial curve, poor fit]. Cc1ccc(SC(CC(=O)c2ccc(F)cc2)C(=O)O)cc1 (stereo not given) was tested, and the Potency was inconclusive [inhibitor, partial curve, poor fit]. For COc1ccccc1CNS(=O)(=O)c1c(C)nc2sc(C)cn2c1=O, the Potency was “inactive”. O=C(NNc1ccccc1F)C1CCC1 was tested, and the Potency was inconclusive [inhibitor, full curve, poor fit]. With CCOc1ccc(C(=O)Nc2ccc(C(=O)OCc3cc(=O)n4c(C)csc4n3)cc2)cc1 the Potency was inconclusive [inhibitor, single point]. With O=C(c1ccccc1C(=O)N1CCN(c2ccccc2)CC1)N1CCN(c2ccccc2)CC1 the Potency was inconclusive [inhibitor, partial curve, poor fit]. For Cc1ccc(NC(=O)/C(=C/c2ccco2)c2ccccc2)c(C)c1, the Potency was inconclusive [inhibitor, single point]. For O=C(c1cc(COc2ccc(F)cc2F)on1)N1C[C@H]2CC[C@H]1C2, the Potency was inconclusive [inhibitor, single point]. In the case of Cc1ccc(NS(=O)(=O)c2ccc3c(c2)NC(=O)CCS3)c(C)c1, the Potency is reported as inconclusive [inhibitor, single point]. Cc1cccc(NC(=O)C2C3C=CC4(O3)C2C(=O)N(CCCN2CCCC2)C4C(=O)NC2CCCC(C)C2C)c1 (stereo not given) was tested, and the Potency was inconclusive [inhibitor, partial curve, poor fit]. With O=C(NCC(=O)N(c1ccccc1F)C(C(=O)NC1CCCC1)c1ccncc1)c1ccco1 (stereo not given) the Potency was inconclusive [inhibitor, partial curve, poor fit]. In the case of COc1ccc(C(=O)OCc2c(-c3cccc(OC)c3)ncc3ccccc23)cc1, the Potency is reported as inconclusive [inhibitor, partial curve, poor fit]. In the case of Cc1nn(-c2ccc(F)cc2)c(Cl)c1/C=C(/CC(=O)O)c1nc2ccccc2s1, the Potency is reported as inconclusive [inhibitor, single point]. For Cc1nc(NC(=O)c2ccco2)sc1C(=O)O, the Potency was inconclusive [inhibitor, single point]. For CC(=O)c1cccc(-c2ccnc3c2CC(C(=O)NCC2CCOCC2)O3)c1 (stereo not given), the Potency was inconclusive [inhibitor, full curve, poor fit]. For CCCc1noc2c1C(c1cc(Br)ccc1F)C(C#N)=C(N)N2 (stereo not given), the Potency was inconclusive [inhibitor, partial curve, poor fit]. In the case of Cc1cc(C)c(C(=O)COC(=O)C2CCN(c3ccc(C(F)(F)F)cn3)CC2)c(C)c1, the Potency is reported as inconclusive [inhibitor, partial curve, poor fit]. With C/C(CC(=O)Nc1ccc(Cl)cc1Cl)=N\NC(=O)c1ccco1 the Potency was inconclusive [inhibitor, single point]. In the case of CCn1cc(/C=C(\NC(=O)c2ccccc2Cl)C(=O)NCCCn2ccnc2)c2ccccc21, the Potency is reported as inconclusive [inhibitor, partial curve]. Cc1ccc(C(=O)c2coc3ccc(O)c(Cl)c23)cc1 was tested, and the Potency was inconclusive [inhibitor, single point]. For CCC(Sc1nc2ccncc2[nH]1)C(=O)Nc1cc(C)ccc1C (stereo not given), the Potency was “inactive”. For Cc1nn(Cc2ccc(Cl)cc2)c(C)c1NC(=O)CSc1nc2c(c(C(F)(F)F)n1)CCc1ccccc1-2, the Potency was inconclusive [inhibitor, single point]. With CCCOC(=O)c1c(-c2ccccc2)nc(CC)c(C(=O)SCC)c1CCC the Potency was inconclusive [inhibitor, full curve]. In the case of Oc1c(C(c2ccc(Cl)cc2Cl)N2CCN(Cc3ccccc3)CC2)sc2nc(-c3ccco3)nn12 (stereo not given), the Potency is reported as inconclusive [inhibitor, single point]. With COc1ccc2nc(C)cc(N/N=C/c3ccc(F)cc3)c2c1 the Potency was inconclusive [inhibitor, single point]. For CN1C=CC=C/C1=C1\SC(=S)N(Cc2ccccc2)C1=O, the Potency was inconclusive [inhibitor, partial curve, poor fit]. For COc1cccc(C(c2nnnn2C2CCCC2)N2CCN(C/C=C/c3ccccc3)CC2)c1OC (stereo not given), the Potency was inconclusive [inhibitor, single point]. In the case of COc1cc(NC(=S)NC(=O)c2cc(C)cc(C)c2)ccc1NC(=O)c1cccs1, the Potency is reported as “inactive”. COc1ccc2oc(C(=O)OCC(=O)NC(=O)NC(C)C)c(C)c2c1 was tested, and the Potency was “inactive”. In the case of CSc1cccc(NC(=S)N2CCCN(Cc3ccccc3F)C2)c1, the Potency is reported as inconclusive [inhibitor, partial curve, poor fit]. O=C(NCCN1CCOCC1)c1ccc2c(c1)N(Cc1ccc(Cl)cc1)C(=O)CS2 was tested, and the Potency was inconclusive [inhibitor, single point].
